Article PMC6919601, “Identification of Plasmodium dipeptidyl aminopeptidase allosteric inhibitors by high throughput screening” (PLoS ONE, 2019)
Hit rate of the full screen: of about 110,000 compounds, about 230 (0.21%) showed an effect of 50% or more. This is one part of the list.

biological target: DPAP1 (Plasmodium falciparum, UniProt Q8IIJ9); experiment: primary screen, percent inhibition; read by cleavage of a fluorogenic dipeptide substrate; higher = more effect of the substance; parameters: species or system P. falciparum D10 trophozoite lysates; single well
Sequence (Q8IIJ9 whole entry, looked up): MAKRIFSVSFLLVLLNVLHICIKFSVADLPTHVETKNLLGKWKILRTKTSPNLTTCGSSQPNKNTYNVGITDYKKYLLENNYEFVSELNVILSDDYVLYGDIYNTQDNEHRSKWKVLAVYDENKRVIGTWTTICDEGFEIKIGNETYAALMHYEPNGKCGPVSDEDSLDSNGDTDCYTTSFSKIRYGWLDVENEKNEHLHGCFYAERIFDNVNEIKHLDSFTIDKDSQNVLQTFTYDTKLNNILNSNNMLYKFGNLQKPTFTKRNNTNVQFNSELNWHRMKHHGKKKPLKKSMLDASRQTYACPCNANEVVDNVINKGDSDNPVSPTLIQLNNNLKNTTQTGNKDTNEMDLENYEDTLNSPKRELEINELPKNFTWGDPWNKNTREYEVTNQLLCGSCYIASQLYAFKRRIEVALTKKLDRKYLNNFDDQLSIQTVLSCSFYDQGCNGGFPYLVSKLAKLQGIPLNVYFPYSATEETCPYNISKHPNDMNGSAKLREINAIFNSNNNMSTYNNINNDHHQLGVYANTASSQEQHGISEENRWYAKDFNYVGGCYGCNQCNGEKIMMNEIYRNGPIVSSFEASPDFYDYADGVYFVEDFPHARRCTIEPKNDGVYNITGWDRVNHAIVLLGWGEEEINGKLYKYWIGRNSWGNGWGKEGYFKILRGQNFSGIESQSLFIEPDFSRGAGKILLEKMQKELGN
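Further: 30 min substrate incubation versus DMSO and 10 µM JCP410 controls.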

Row | Compound | % Inhibition @ 10 uM
1 | CC(Nc1cc(=O)n(C)c(=O)[nH]1)c1ccccc1 (stereo not drawn) | -0.267%
2 | CCOc1ccc2c(c1)nc(SCc1ccccc1)n2C | -3.14%
3 | COc1ccc(OCC(=O)N2CCN(C3CCN(Cc4ccccc4)CC3)CC2)cc1 | -1.6%
4 | CN1CCCCc2c([nH]c3ccccc23)C1=O | -2.77%
5 | Nc1nonc1NC(=O)CSc1nnc2c(n1)[nH]c1ccccc12 | -1.24%
6 | COc1cc(C(=O)N(Cc2nc(-c3ccccc3)no2)C(C)C)cc(OC)c1OC | 0.521%
7 | Cc1ccccc1OCC(=O)Nc1ccc(Oc2ccc3c(c2)C(=O)NC3=O)cc1 | 2.22%
8 | Cc1cc(C(=O)NCCc2ccc(S(N)(=O)=O)cc2)no1 | -2.65%
9 | CCOC(=O)c1c(NC(=O)C(F)(OC)C(F)(F)F)sc(C(=O)N2CCCCC2)c1C (stereo not drawn) | 2.18%
10 | Cc1ccc2onc(CNC(=O)NC3CCN(Cc4ccccc4)CC3)c2c1 | -0.544%
11 | COc1ccc(S(=O)(=O)N[C@@H](CC(C)C)C(=O)NCC#N)cc1OC | -1.41%
12 | CCOC(=O)c1ccc(NC(=O)c2cccs2)cc1 | -3.72%
13 | CCN(C(=O)/C=C/c1ccc(C(C)C)cc1)c1ccccc1 | 1.63%
14 | CCOC(=O)N1CCN(CC(O)COc2ccc(OC)cc2C(C)(C)C)CC1 (stereo not drawn) | 0.146%
15 | O=C1C(c2ccc(F)cc2)N(CC2COc3ccccc3O2)C(=O)CN1C1CCCCC1 (stereo not drawn) | 4.47%
16 | O=C(CCCn1sc2ccccc2c1=O)NCCc1ccc(Cl)cc1 | -2.84%
17 | COc1ccc2oc(C)c(C(=O)c3ccc(C)cc3)c2c1 | -3.03%
18 | CC1CCN(C(=O)c2cccc3c2-c2ccccc2C3=O)CC1 | -10.6%
19 | CCOc1cc(-c2noc(N)c2C#N)cc(OCC)c1OCC | 3.96%
20 | COc1ccc(-c2[nH]nc3c2C(c2cccc(F)c2F)C(C#N)=C(N)O3)cc1OC (stereo not drawn) | 5.18%
21 | CCOC(=O)c1c(-c2ccc(Cl)cc2)csc1/N=C/C1C(=O)CC(C)(C)CC1=O | -7.2%
22 | COc1cc(C(=O)Nc2sc3c(c2C(N)=O)CCCC3)cc(OC)c1OC | 5.54%

Row | Compound | % Inhibition @ 10 uM
23 | COc1cc2ncc(S(=O)(=O)c3ccc(C)cc3)c(N3CCCC3)c2cc1OC | -3.86%
24 | O=C(NC1=NCCS1)c1cc(-c2ccc3c(c2)OCO3)nc2ccccc12 | -1.42%
25 | Cc1nccc2nc(O)c(C(=O)NC3CCN(Cc4ccccc4)CC3)cc12 | 3.93%
26 | CCOc1ccc(-c2[nH]nc3c2C(c2ccco2)C(C#N)=C(N)O3)c(OCC)c1 (stereo not drawn) | -2.56%
27 | Cn1c(=O)[nH]c2nnc(-c3cc(Br)cs3)nc2c1=O | -2.85%
28 | CCOC(=O)c1nnn(-c2nonc2-n2cccc2)c1CN1CCOCC1 | -0.834%
29 | COc1ccccc1N1C(=O)CC(=O)NC1=S | -4.01%
30 | CCCN1CCCn2c1nc1c2c(=O)n(C)c(=O)n1C | 1.35%
31 | Cc1ccc(S(=O)(=O)Nc2cncc(C(=O)NC3CCCCC3C)c2)cc1 (stereo not drawn) | -5.75%
32 | CCn1c(=O)[nH]c2cc(C(=O)Nc3ccc(Cl)c(Cl)c3)ccc2c1=O | -5.35%
33 | O=CN1CCN(C/C(Cl)=C/c2ccccc2)CC1 | -2.95%
34 | CC(C#N)(Nc1ccc(Cl)cc1)c1cccnc1 (stereo not drawn) | 6.98%
35 | CN1CCCc2c1n(Cc1ccccc1)c1ccccc1c2=O | -0.591%
36 | CCC12CC3CC(C1)CC(NC(=O)SC)(C3)C2 | 3.48%
37 | CC(=O)NC1(C(F)(F)F)C(=O)N(Cc2ccccc2)C(C)=C1C(=O)c1ccccc1 (stereo not drawn) | -5.2%
38 | CCN1CCC(N2CCN(C=O)CC2)CC1 | 1.43%
39 | NC(=O)NC(c1ccccc1)c1cccc2ccccc12 (stereo not drawn) | -5.2%
40 | COC(=O)c1sccc1NC(=O)c1ccoc1C | 2.92%
41 | COc1cc(OC)c(OC)cc1C=C1C(=O)OC2(CCCCC2)OC1=O | -6.44%
42 | O=C1c2ccccc2C(=O)C1(Nc1cccc(F)c1)c1ccccc1 | -3.93%
43 | O=C(Cn1ncc2c3ccccc3nc-2c1O)Nc1ccccn1 | -0.723%
44 | CCOc1ccc(/C(O)=C/C2=NCCNC2=O)cc1 | 1.97%

Row | Compound | % Inhibition @ 10 uM
45 | CCN(CC)CCCOc1ccc(C(C)(C)C)cc1 | 3%
46 | COc1cc(Cl)ccc1N1C(=O)c2ccccc2C1=O | -5.98%
47 | Cc1c(CC(=O)NCc2ccc3c(c2)OCO3)c(=O)oc2cc(O)ccc12 | 2.54%
48 | COc1cccc(S(=O)(=O)NCC(=O)Nc2ccc3sc(C)nc3c2)c1 | -5.14%
49 | Cc1[nH]nc2c1C(c1cccnc1)N(C)C2=O (stereo not drawn) | 0.635%
50 | Cc1ccc(-c2cc(-c3ccccc3)nc(SCC(N)=O)c2C#N)cc1 | 7.1%
51 | Cc1nc2c(-c3ccccc3)c(C)nn2c(C)c1CC(=O)NC(C)C12CC3CC(CC(C3)C1)C2 (stereo not drawn) | -2.25%
52 | CN1C(=O)C(O)=C(C(=O)c2ccc(Cl)cc2)C1c1ccc(Cl)cc1 (stereo not drawn) | -3.09%
53 | c1ccc(Cn2c(NCc3ccccn3)nc3ccccc32)cc1 | -7.35%
54 | O=S(=O)(NCCCc1ccccc1)c1ccc2nc(O)ccc2c1 | 1.92%
55 | O=C(CSc1nnc(-c2ccco2)o1)c1ccc2c(c1)OCCO2 | -6.42%
56 | CCN1CCN(C(=O)CN2N=C(c3ccccc3)CCC2=O)CC1 | 0.514%
57 | CN(Cc1ccccc1)S(=O)(=O)c1nnc(NC(=O)COc2ccccc2F)s1 | -7.32%
58 | CC1=CN2C(=N)/C(=C/c3cc(C)n(Cc4ccccc4)c3C)C(=O)N=C2S1 | -2.98%
59 | COC(=O)c1nnn(-c2nonc2N)c1C(C)C | 1.62%
60 | O=S1(=O)c2ccccc2C2C1C1c3ccccc3S(=O)(=O)C21 (stereo not drawn) | -4.56%
61 | CCNCCOC(c1ccccc1)c1ccccc1 | -8.9%
62 | Cc1cc(N2CCN(c3ccccc3)CC2)nc(N)n1 | -3.04%
63 | CC1CCC(NC(=O)c2cc3oc4ccccc4c3n2C)CC1 (stereo not drawn) | 3%
64 | O=C(Nc1ccc(-c2nc3cc(NC(=O)c4cccs4)ccc3o2)cc1)c1cccs1 | 4.04%
65 | Cc1c(CCN)c2ccccc2n1Cc1ccccc1 | -0.0372%
66 | CN1CCC(N(C)Cc2ccco2)CC1 | -0.969%
